Measured values reported in patent publication US20200054633A1 (priority 2017, published 2020).
Like-named read-outs stand apart in the source and are kept apart here.

Legend:
[1] = system: acute uncomplicated seasonal influenza A; test: Clinical study: time to resolution of the 7 primary influenza symptoms (Flu-iiQ); conditions: for Hazard ratio Estimate, time to resolution of 7 primary influenza symptoms / Time to Resolution of Influenza Symptoms Acceleration factor (95% CI): versus placebo, Full Analysis Set; for Time to Resolution of Influenza Symptoms Acceleration factor (95% CI): accelerated failure time model
[2] = OST placebo, N=74
Excerpt: Analysis set for safety: Safety Set included all subjects who received at least 1 dose of study drug.

O=C(O)[C@H]1C2CCC(CC2)[C@@H]1Nc1nc(-c2c[nH]c3ncc(F)cc23)ncc1F [Compound (1), Pimodivir]
reduction in time to resolution of influenza symptoms versus placebo ([1]; Compound (1) 600 mg bid, not statistically significant): 13% | Hazard ratio Estimate, time to resolution of 7 primary influenza symptoms ([1]; Cmpd (1) 300 mg + OST placebo): 0.84 | Hazard ratio Estimate, time to resolution of 7 primary influenza symptoms ([1]; Cmpd (1) 600 mg + OST placebo): 1.17 | Time to Resolution of Influenza Symptoms Acceleration factor (95% CI) ([1]; Compound (1) 300 mg bid): 1.07 (0.76; 1.52) | Time to Resolution of Influenza Symptoms Acceleration factor (95% CI) ([1]; Compound (1) 300 mg bid, listed as Cmpd (1)): 1.07 | Time to Resolution of Influenza Symptoms Acceleration factor (95% CI) ([1]; Compound (1) 600 mg bid): 0.87 (0.62; 1.23) | Time to Resolution of Influenza Symptoms Acceleration factor (95% CI) ([1]; Compound (1) 600 mg bid, listed as Cmpd (1)): 0.87 | TEAE: Influenza like illness ([2]; 300 mg): 0 n (%) | TEAE: Influenza like illness ([2]; 600 mg): 0 n (%)
